# Laboratory results as given in the BET-seq Pho4 binding data (Le et al. 2018).
# Some of the results follow. These are noisy estimates, calculated here from bound and input reads.
# Target: T1, Pho4 (S. cerevisiae) (UniProt P07270)
# T1 sequence: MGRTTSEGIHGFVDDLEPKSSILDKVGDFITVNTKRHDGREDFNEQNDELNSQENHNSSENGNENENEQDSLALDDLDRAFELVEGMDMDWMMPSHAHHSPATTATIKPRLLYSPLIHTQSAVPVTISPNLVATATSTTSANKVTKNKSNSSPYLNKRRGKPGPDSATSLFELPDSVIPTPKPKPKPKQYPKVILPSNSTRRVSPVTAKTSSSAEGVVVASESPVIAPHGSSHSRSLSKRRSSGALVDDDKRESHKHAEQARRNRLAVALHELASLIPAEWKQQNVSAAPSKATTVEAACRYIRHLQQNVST
# Assay: relative binding free energy (BET-seq); higher = weaker binding
# Settings: reference: library average
row,Sequence,relative binding free energy [kcal/mol]
1,TCGTGCACGTGGTGTG,-0.16
2,TGAGACACGTGGCTTG,0
3,ATGGGCACGTGCTTAA,-0.12
4,TTTAACACGTGTTCGA,-0.1
5,TGTGGCACGTGATGAA,0.01
6,CTTATCACGTGTTAGG,0.16
7,AATGGCACGTGTAAGT,0.14
8,GTGCGCACGTGTTTTA,-0.08
9,ATTAGCACGTGGATCA,0.17
10,TTTTACACGTGTCTAG,0.08
11,GAATTCACGTGTTTTA,0.36
12,ATTCGCACGTGTGGGA,-0.04
13,GGGTGCACGTGTGGAT,0.02
14,GTTTACACGTGGAAGA,0.23
15,GATTGCACGTGCGTGG,0.02
16,GTGTTCACGTGCGGGC,0.29
17,AGGATCACGTGTAAGA,0.36
18,TAGAGCACGTGGGTTG,-0.13
19,GTGTACACGTGAAGTG,0.43
20,GGTCGCACGTGTGGGC,0.06
21,GTTGACACGTGTTTTA,0.15
22,GGTGACACGTGAGAGT,0.16
23,AGTAACACGTGCTATG,0.02
24,TGGGGCACGTGTTGTT,-0.08
25,CTTGACACGTGTTAAG,0.04
26,ATAGGCACGTGGAGAG,-0.17

row,Sequence,relative binding free energy [kcal/mol]
1,TGTGACACGTGTGGGA,0.07
2,CTATTCACGTGAGGGG,0.24
3,ATGATCACGTGTGGTG,0.16
4,GTTGCCACGTGTCGTG,0.08
5,CGGTGCACGTGTGGCA,0.12
6,TACTGCACGTGGAGTT,-0.07
7,GAGTGCACGTGAGTAG,0.29
8,GAATACACGTGTTAGG,-0.01
9,CTTTTCACGTGGAGTT,0.21
10,CTTTTCACGTGTTGAA,0.32
11,GTTCGCACGTGTGAGG,0.04
12,TATGACACGTGGAAGA,0.12
13,CGGATCACGTGGTAGA,0.22
14,GTATTCACGTGATGAG,0.32
15,ACAGTCACGTGGAGGT,0.06
16,TTGTTCACGTGTCGCG,0.28
17,ATTTACACGTGTGCTT,0.12
18,ATTATCACGTGCTTGG,0.08
19,GGCTACACGTGGAGTT,0.19
20,CTTTACACGTGTTGCT,0.07
21,CTGTGCACGTGTGGCA,0
22,CTAGGCACGTGTATGT,-0.23
23,AAGGGCACGTGGTTAA,0
24,AATGGCACGTGGAGTA,-0.28
25,GCCGGCACGTGGAGGT,-0.07
26,GTTTTCACGTGTGTGA,0.39

row,Sequence,relative binding free energy [kcal/mol]
1,TGTATCACGTGGAAAT,0.13
2,AGAGGCACGTGGGTTT,-0.13
3,GTTATCACGTGATCTT,0.27
4,GTCGGCACGTGGGTTC,-0.19
5,CTGTTCACGTGGAGGA,0.21
6,TATGTCACGTGTGAAA,0.09
7,ATCTGCACGTGTTGAG,0.01
8,TAGTTCACGTGATGCT,0.17
9,GGTTCCACGTGAGGGG,0.31
10,AAATTCACGTGTTTAG,0.2
11,CTTTGCACGTGTGTTT,-0.02
12,TGCGGCACGTGCGGTC,-0.04
13,GACTGCACGTGGTCGG,-0.03
14,GTATTCACGTGAGTCG,0.38
15,TTACTCACGTGCTGGG,0.14
16,ATTGGCACGTGTATTC,-0.03
17,TTGATCACGTGATTTG,0.18
18,GTATCCACGTGTGGTT,0.14
19,TGAAGCACGTGAATTG,0.27
20,GTTTCCACGTGAATGT,0.36
21,TAATTCACGTGGTCTT,0.22
22,GTTTACACGTGATTCA,0.26
23,AGTTGCACGTGCTGTT,-0.06
24,TTCGTCACGTGTGGAT,0.16
25,GGGGACACGTGTTGTA,0.19
26,GTGCTCACGTGTTTTG,0.16

row,Sequence,relative binding free energy [kcal/mol]
1,AAGGACACGTGTATAT,0.1
2,GTACGCACGTGGGTGA,-0.21
3,GGCCGCACGTGAGTGT,0
4,AACGTCACGTGTTAGT,0.14
5,CGGAACACGTGTGGGG,0.01
6,TGAGTCACGTGATCTG,0.15
7,GGGGTCACGTGTCAGC,0.24
8,ATTTTCACGTGTTACG,0.3
9,TAAGGCACGTGGGACG,-0.14
10,TTTTGCACGTGTTGCA,-0.06
11,TGTGTCACGTGGTTGG,0.05
12,TATTACACGTGAGGAG,0.27
13,CGAGGCACGTGCGAGG,-0.12
14,GCACTCACGTGGTTGG,0.34
15,GTTCGCACGTGGGCTT,-0.07
16,AGTGGCACGTGTTTAA,-0.06
17,GGGTGCACGTGAAGTG,0.36
18,GCTGGCACGTGAAGTT,0.13
19,AGGTACACGTGGCGAT,0.03
20,ATCTGCACGTGGTGCA,0.05
21,ATTGGCACGTGACTAG,-0.03
22,GGGTACACGTGGGCAA,0.04
23,GCAGGCACGTGGAGGC,-0.14
24,GAAAGCACGTGGCGTG,-0.1
25,GTTGACACGTGATGGC,0.17
26,GGGGCCACGTGGAGGA,-0.04

row,Sequence,relative binding free energy [kcal/mol]
1,TACTGCACGTGGGGGG,-0.08
2,TTTTACACGTGAGTGA,0.32
3,ATGTGCACGTGTCGTC,-0.02
4,GGGTGCACGTGTAAAT,0.22
5,TAATCCACGTGGGGGT,-0.16
6,GTCGTCACGTGTAATT,0.21
7,GTAGACACGTGGAAAT,0.31
8,CAAGTCACGTGTGGGA,0.22
9,AATAGCACGTGTGTTA,-0.17
10,CTGGTCACGTGCGGTA,0
11,GAATGCACGTGGTGGA,0.13
12,TGTGTCACGTGGCTGG,0.02
13,TTGTGCACGTGGTAGA,0.04
14,GTGCGCACGTGGGTTA,-0.13
15,ATTGTCACGTGTCATG,-0.01
16,GATGACACGTGGCGTG,0
17,CTGGTCACGTGTGTAG,0.12
18,GTTAGCACGTGTCGAG,-0.02
19,GAGGGCACGTGTGCAG,-0.04
20,AGTTGCACGTGGGGCG,-0.1
21,GATCGCACGTGTGGGA,0.09
22,TATGACACGTGTAATT,0.16
23,CAAGTCACGTGTAGGT,0.12
24,TTTAGCACGTGTGGCG,0.04
25,TAGAACACGTGCTGGT,-0.02
26,ATAAGCACGTGGATGC,0

row,Sequence,relative binding free energy [kcal/mol]
1,CGGTTCACGTGTTAGA,0.24
2,TAGAGCACGTGTTTTG,-0.1
3,CCTGGCACGTGAGTGT,0.09
4,GGGTGCACGTGACGGC,0.17
5,TCGATCACGTGGGTCG,0.12
6,GGTTTCACGTGGGCGA,0.36
7,ATGTTCACGTGTGGTG,0.29
8,TTAGTCACGTGGGGCA,-0.1
9,GGGGACACGTGTAATG,0.12
10,TTTCACACGTGGTTCT,0.05
11,TAATACACGTGAGGGT,0.33
12,GTGCGCACGTGATTGA,0.21
13,GTTGTCACGTGTCGCT,0.12
14,TTTTTCACGTGTTTTG,0.33
15,GAACGCACGTGGTAGT,0.05
16,AGTGTCACGTGGCTCG,-0.06
17,GATGTCACGTGGGCCG,0.01
18,AGGTGCACGTGACGTG,0.06
19,AGAAGCACGTGTTGTT,-0.05
20,AAACTCACGTGGGGTT,0
21,TATGGCACGTGGTGTG,-0.17
22,AGTGTCACGTGAGGAA,0.15
23,GTGCGCACGTGCGGTA,-0.16
24,TTTCGCACGTGATTAT,0.14
25,CGGATCACGTGCGGGG,0.08
26,GTTTTCACGTGCTGAA,0.18

row,Sequence,relative binding free energy [kcal/mol]
1,TTGTCCACGTGGCGTG,-0.02
2,TTTCTCACGTGGGCTA,0.16
3,TATCACACGTGGGGTT,-0.03
4,GGGTTCACGTGCATGT,0.22
5,GGAGACACGTGGGATG,-0.06
6,GGCTTCACGTGAGGGA,0.27
7,AGCGTCACGTGGGGGC,-0.13
8,AAGTGCACGTGCGGAT,-0.02
9,AGGTACACGTGTATAT,-0.04
10,GAGTACACGTGTGTGA,0.09
11,GGGAACACGTGTAAAG,0.23
12,TAAAACACGTGATGGT,0.18
13,TAATGCACGTGGTTTG,-0.01
14,TCGGGCACGTGATTAT,0.03
15,TGCTTCACGTGAGTGT,0.31
16,ACTTGCACGTGGGGAA,-0.19
17,CAAGGCACGTGTTATG,-0.1
18,CGAATCACGTGAGTTT,0.42
19,TGTTACACGTGGGCCG,-0.04
20,TAGCTCACGTGGATGG,0.2
21,GTAATCACGTGGGGAA,0.08
22,TATTACACGTGGTTGA,0
23,AGTAACACGTGTGATA,0.14
24,CGTCGCACGTGAGAGG,0.24
25,TGTTGCACGTGTTGCT,0
26,TCGTGCACGTGGGGTT,-0.16

row,Sequence,relative binding free energy [kcal/mol]
1,GATGGCACGTGCGGTT,-0.06
2,AAGTGCACGTGGTTAA,-0.3
3,AGGTTCACGTGGTCTC,0.23
4,GTTGACACGTGGTCGG,-0.1
5,GAGTTCACGTGCAGGC,0.5
6,GATGGCACGTGGCCTG,-0.08
7,TCATACACGTGGGGTA,-0.08
8,TTAGTCACGTGTCGTG,0.02
9,GTGCGCACGTGTTTCG,0.02
10,TATTGCACGTGGTACT,-0.17
11,CATGGCACGTGGAAGG,0.01
12,CAGGTCACGTGGTCTG,-0.09
13,TTGTTCACGTGGTTAG,0.19
14,GTGTCCACGTGGCAGG,-0.07
15,TTCGGCACGTGCTAGG,-0.09
16,AGTTGCACGTGCCTGG,-0.17
17,TGGTCCACGTGTCGGT,-0.14
18,GAGTTCACGTGATGCG,0.27
19,GTGGTCACGTGGGCGT,0.02
20,CGTTGCACGTGTCTTT,-0.02
21,AGGGGCACGTGCTTGA,-0.18
22,CAGAGCACGTGGGGTA,-0.2
23,GGTCTCACGTGTCAGG,0.2
24,ATTCTCACGTGTGCGT,0.25
25,ATGGGCACGTGCTTTG,-0.21
26,TTATACACGTGTATAA,0.07

row,Sequence,relative binding free energy [kcal/mol]
1,TTTCTCACGTGAGGGG,0.21
2,TGTGGCACGTGGGAAA,-0.07
3,GGTAACACGTGAAAGT,0.33
4,AGTGACACGTGTTTTT,0.01
5,AGTGGCACGTGACTTG,-0.06
6,GTAGCCACGTGTGTGA,-0.08
7,TGAGACACGTGGAATG,0.07
8,ACAGTCACGTGGTGTA,-0.18
9,ATGTGCACGTGGAGCA,-0.11
10,CTGAACACGTGTTTGT,0
11,TAGCTCACGTGTTTTG,0.07
12,GGGTTCACGTGCATAT,0.11
13,TTGTCCACGTGTTTTT,0.02
14,TGTAGCACGTGTCTAG,-0.03
15,TATGGCACGTGTGCCG,-0.14
16,TGGGTCACGTGTATAG,0.18
17,ACATGCACGTGGTATT,-0.08
18,GTGAGCACGTGGTGTT,-0.21
19,TCTTTCACGTGAAGTT,0.31
20,AGGGTCACGTGGTTTG,0.18
21,GTTATCACGTGTTGGA,0.24
22,CTTTTCACGTGTTTGA,0.19
